# This is one part of the list. Further columns of the screen follow, without active or inactive calls.
# Experiments:
# Assay in all cases: Primary Screen for Target Class Profiling of Small Molecule Inhibitors of Methyltransferases
# [1] = target: Glycine N-methyltransferase (Homo sapiens) (UniProt Q14749); conditions: purified enzyme, MTase-Glo SAH luminescence; measured here: GNMT inhibition; at 40 µM; stronger effect = lower value
# Procedure, shortened: (§1)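 Each enzyme was reacted with SAM and its substrate, with compounds tested once at 40 uM; SAH formed was read by MTase-Glo luminescence.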
# [2] = target: Guanidinoacetate N-methyltransferase (Homo sapiens) (UniProt Q14353); conditions: purified enzyme, MTase-Glo SAH luminescence; measured here: GAMT inhibition; at 40 µM; stronger effect = lower value
# Procedure, shortened: as §1
# [3] = target: Histamine N-methyltransferase (Homo sapiens) (UniProt P50135); conditions: purified enzyme, MTase-Glo SAH luminescence; measured here: HNMT inhibition; at 40 µM; stronger effect = lower value
# Procedure, shortened: as §1
# [4] = target: Nicotinamide N-methyltransferase (Homo sapiens) (UniProt P40261); conditions: purified enzyme, MTase-Glo SAH luminescence; measured here: NNMT inhibition; at 40 µM; stronger effect = lower value
# Procedure, shortened: as §1
# [5] = target: Phenylethanolamine N-methyltransferase (Homo sapiens) (UniProt P11086); conditions: purified enzyme, MTase-Glo SAH luminescence; measured here: PNMT inhibition; at 40 µM; stronger effect = lower value
# Procedure, shortened: as §1
# On the % scale 0 is the no-effect control and ±100 the full control effect.
SMILES,"activity change, negative = inhibition [1] [%]","activity change, negative = inhibition [2] [%]","activity change, negative = inhibition [3] [%]","activity change, negative = inhibition [4] [%]","activity change, negative = inhibition [5] [%]"
COc1ccc(CNC(=O)C2(C)Cn3cnc(C(=O)N4CCc5ccccc54)c3C(=O)N2C2CC2)cc1 (stereo not given),3.96,1.93,3.19,2.04,5.83
CCCn1c(=O)sc2cc(NS(=O)(=O)c3ccc4c(c3)n(C)c(=O)n4C)ccc21,-4.21,0,10.2,-3.15,2.14
COc1cc2c(NC(C)=O)c3n(c2cc1OC)CC(C)(C(=O)NC1CCCCCC1)N(Cc1ccccc1)C3=O (stereo not given),-3.02,0.579,-3.02,5.48,-1.47
CC(O)/C=C/C1(O)C2(C)COC1(C)CC(O)C2 (stereo not given),-5.11,-14.5,0.746,-19.2,-12.1
CS/C=C/C(=O)O[C@@H]1CCC2=CC(=O)C(=C(C)C)C[C@]2(C)[C@H]1C,-4.67,-12.5,-0.799,-27.5,-3.16
CC(C)(C[C@@](O)(Cc1cc2ccncc2[nH]1)C(F)(F)F)c1cc(F)ccc1O,-5.78,4.45,-51.8,-20.8,-14.3
C=CC(C)(O)C1CC2C3(C)CCCC(C)(C)C3C(O)C(O)C2(C)O1 (stereo not given),-1.7,-1.27,5.59,-12.1,-5.05
Cc1nc2ncnn2c(C)c1CCC(=O)N1C[C@@H](N)C[C@H]1C(=O)NC(C)C,-0.768,-2.19,-3.16,-1.7,-2.69
Cn1cc(-c2cc3c(ccn3Cc3ccncc3)c(N3CCOCC3)n2)cn1,-51,-25.4,-19.5,-12.5,-45.3
CC1(C(=O)NC2CCCC2)Cn2c(ccc2-c2ccco2)C(=O)N1Cc1ccc(Cl)cc1 (stereo not given),-6.2,5.48,2.5,-8.81,-2.13
COc1ccc(CC(=O)N2CCC(c3n[nH]c(=O)n3Cc3ccc(F)cc3)CC2)cc1,-4.39,-4.93,-1.75,-8.27,0.981
O=C(C1CCCC1)N1CCC(C(=O)N2CCCC2c2ccccn2)CC1 (stereo not given),2.5,1.97,0.262,1.48,13
CC(=O)OC1CC2(C)C(CCC(C)C23Cc2c(O)cc(CO)c(C=O)c2O3)C(C)(C)C1O (stereo not given),-2.78,-1.93,10.9,-17.3,-9.73
COCCn1nnnc1C1CC2(CCOCC2)C(=O)N1Cc1ccc(SC)cc1 (stereo not given),-1.91,-1.55,-0.847,-3.28,-4.22
Cc1ccc(NC(=O)CSc2nnc3n(CCC(C)C)c(=O)c4ccccc4n23)c(Cl)c1,0.257,0,4.45,-6.9,6.84
Cc1c(NS(=O)(=O)c2ccc3c(c2)n(C)c(=O)n3C)c(=O)n(-c2ccccc2)n1C,2.79,0.955,10.6,12,4.43
CC1(C)CC[C@]2(C(=O)O[C@@H]3O[C@H](CO)[C@@H](O)[C@H](O)[C@H]3O)CC[C@]3(C)C(=CCC4[C@@]5(C)C[C@@H](O)[C@H](O)[C@](C)(C(=O)O)C5CC[C@]43C)C2C1O (stereo not given in full),-4.82,-16.1,0.319,-20.8,-7.81
COCC1CN(C(C)=O)CC12CCN(Cc1cccc(Cl)c1F)CC2 (stereo not given),-0.816,-1.55,2.49,-4.93,-4.63
O=C(Cn1c(=O)oc2cc(S(=O)(=O)N3CCCC3)ccc21)N1CCC(Cc2ccccc2)CC1,-2.44,1.57,-4.11,-8.76,-7.3
Cc1c(-c2ccc3c(c2)OCO3)oc2ccc(C(O)C(C)O)cc12 (stereo not given),0,3.41,5.46,-9.4,5.93
CC1CCC(NC(=O)C2(C)Cn3c(cc4sccc43)C(=O)N2Cc2ccc(F)cc2)CC1 (stereo not given),3,0,1.04,-7.63,-3.96
CNc1nc(-c2ccc3c(N)n[nH]c3c2)cc(N2CC(C(=O)NC3CCCCC3)CCC2C)n1 (stereo not given),-7.45,8.58,4.96,-20.1,4.34
Cc1nc(N=Nc2ccc(C(=O)O)cc2)c(COP(=O)(O)O)c(C=O)c1O,-10.6,4.67,-6.36,-4.72,5.59
CCn1cc(CN2CCN(C(=O)CCc3ccccc3)CC2)ccc1=O,-16.2,-4.59,-2.62,-8.08,-17.7
COC(=O)[C@@H]1Cc2ncn(C(C)C)c2CN1S(C)(=O)=O,1.25,-2.11,-1.33,-1.02,-8.56
CCCn1c(=O)c2ccc(C(=O)NC(C)CC)cc2n2c(=O)n(C)nc12 (stereo not given),8.19,1.85,11.3,10.5,9.63
C[C@@H]1O[C@@H](O[C@H]2[C@H](O[C@H]3CC[C@@]4(C)C(CC[C@]5(C)C4C=C[C@]46OC[C@@]7(CCC(C)(C)C[C@H]74)[C@@H](O[C@@H]4O[C@@H](C)[C@H](O)[C@@H](O)[C@H]4O)C[C@]65C)[C@]3(C)CO)O[C@H](CO)[C@@H](O)[C@@H]2O[C@@H]2O[C@H](CO)[C@@H](O)[C@H](O)[C@H]2O)[C@H](O)[C@H](O)[C@H]1O (stereo not given in full),3.6,12.6,3.53,0.702,10.3
